# Over roughly 4,500 sequences, “median log2 fold change of GCK-ALFA target abundance (FLAG IP / Myc IP barcode read proportion)” has its median near 0.078; the lowest 2% begin near -0.6. Some of the results follow.
# B1: GBRAP_139_3695 (protein)
# chain: SELEEKIEEARRLAEEMREDPEAALEAIVELINSVSEEEAEKLVEAIAEVLLELPLDEAERLADALIELAEERIEDEDKVDIVEATLNGALARRAYEEEK
# B2: GBRAP_52_6041 (protein)
# chain: MREEMRELAEEIVELMKEGKEEEARKRIKELVETKSEEELELLGEELAELAKKAEPEDLDYIMEVAIILADELIKAGYDEAFADDLLARVARAAVENLKK
# B3: GBRAP_160_3983 (protein)
# chain: SERYEKLKKFIDETFAEAKELIKGQSHEERVTIVEGYGGQVLMELMSDENVSDEAEDAVAAVIDALVAYLRANPDLTEAEIVALIDEARAKIKAILDKDF
# B4: GBRAP_160_4370 (protein)
# chain: KEELEKLAEEIEELKKEFKEEAKDLTPEEVVKLGLGVLAEVAALVWENEAVPEEVEEEIMEIIRKAEKELRENKDAPPEELVKIVEEAFEKIIELIKKAK
# B5: GBRAP_11_2676 (protein)
# chain: KKEKLKEIAELAKKAAKAVKKLLKEGVDNEKLLKEIEELLKKLKELTEKYADKGHQKLTEIAEELFKEALKDPENKEEYLKNLLAALEVLRANVEEEIDE
# B6: GBRAP_128_3459 (protein)
# chain: STEEVKAYTAETMEKMKEASLEEFRKLATELAERLLTLSLEEVEAAVEVIEERLPELTAEKLEVLAEVFDEAAPRFSPEKRALVAEVRSEALLLAEELEE
# B7: GBRAP_14_3775 (protein)
# chain: MEEAIKILEETAKEIVELLAEIAPEKAAEFKAAVEEVLKATIERIKETGDAIAAAEEGRDELRARVAAILADADPETRARALAVVDVEYGKAILELEELE
# B8: GBRAP_166_4940 (protein)
# chain: SLEEMLEELRELIREKVERFPELNEEERLELAIEIGEALRELREAGASDEDILELLTEFAKLLLEAGLDARRLVAAVILEAELDEELEDRVWDEIDKLEK
# B9: GBRAP_14_3765 (protein)
# chain: MEEVEKIIDETGKEIAALLAELVPEKAEEFKEAIDEVRKETIARIKETGDALAAAEEGERRLAERIAEITADLPEERRAEALAVVRVLFGQAILEIDEAL
# B10: GBRAP_122_2961 (protein)
# chain: MEEEKLLKEALKKLEEAKDKPISEIVLLTMEALAKAKREEDKEAIIEKAAEIISEKVPNVSKEEVKKILKEALRLMEEEGISVEEAAAYADVEILDLEME
# B11: GBRAP_160_4672 (protein)
# chain: MEEVEKLKEEIKEILEEALEFMRGESTEERIAVARSMTGDIILLLEESPVVSDEAIDEADELGDELVAWIAAHPDITDEELEAKLEEVLEKIKKILEEKT
# B12: GBRAP_160_4566 (protein)
# chain: MERVEEFLEELREAIEETLEATKDDSVEEIKIAVVGTIGSFAMEAAEDENFSDEMVDAILEAGDRAAKTLEELKDASYEEIKKAVMEIVEELEEEVLKIA
# B13: GBRAP_125_3080 (protein)
# chain: HMEQDLADLATLAKALGLSDDEVEELVRLAAASSLKQTLIALMLAEGWEEVAEALEKLTEEQARKVLREVKAYIEAHPDATPEEVKELMLELAKKAIAEA
# B14: GBRAP_11_2916 (protein)
# chain: KLEKLKEIAKKAEELVKALKELLKEGVDNEELRKKALELAKELLELVKENLDEEDAELAEELVEALEKSKKEPEKAEEYVKEALAIAEVLLGQALLEIEE
# B15: GBRAP_95_7074 (protein)
# chain: DDDRLLLDSLVEVLDTYIDLGNKEKAEEAAKEAAETAKELGYPTFPESLSLEGRLLIVEEAAKTYDKETVLKLTEAILKSVKDEKDKKKILEKREELLKK
# B16: GBRAP_83_6958 (protein)
# chain: MITVVGTSKPESIRAAVDAAIDLHKEEGIEVELELYVTKESAETALEALKRMIDAGVEAEITLIGKESDKETLEKLAEEIKKRAKEAGVNVKVEVIVEPE
# B17: GBRAP_39_5648 (protein)
# chain: EEEEERELLFSYFEALAEKYRIEKGISDEELIEEGLKLLEELKKKYPEIKEKLEELIELAKEGNEEIKLAATGIALLAEEGVSVEELKKHIEDFIEYVKS
# B18: GBRAP_139_3747 (protein)
# chain: MSPEEVEREARALVARYAEDPEAAIAALARLLASLDEELRERAVRAIAEALLERPFDEAEAFLDALERRLREEEGDEEGAELVEAEANRTLAEIAVREEA
# B19: GBRAP_160_4408 (protein)
# chain: SEELEETAERILEAVEDELELLLELGEVDPEAAAGLLEGTILLEAFEDDSLTEEQEEEIEELAEELAERLERLLKEEGRMTEEIVEELLEEAEEGLEEII
# B20: GBRAP_160_4397 (protein)
# chain: SEKFEKLKKEITDIFEETKEMIKGQSPEERKVIVRVSFGEILLAVFENEEVTDEQEEEFGKLLDKYEKEALKAVEKGLEALLEVLDKAKEELLKLIEKNE
# B21: GBRAP_160_4388 (protein)
# chain: SMGFEELAKEVDEIIDEAIELIEGESPEERRVIARVALGEILMAAFSNDDLTDEQEEAIAEVLDKGEKEIEKAIEEGLEAVKAALEKTREELLKLIKEHE
# B22: GBRAP_35_5512 (protein)
# chain: SSDDTEVDMLVATIEDLVLAIPDLDVETASSIANQLIDDARKLAEDLKDDPEGLKRIAEALEALLKAIKKHYGDDPLAKETAKKVEEALKHVKELYEKAL
# B23: GBRAP_122_2962 (protein)
# chain: MKEEELLKKALEELEAAADKPLHEIVLKTMEALAEAESEEAKEKIIRKASEIISKKVPNVKKEEVEEILREALRLMEEEGISVEEAAAYADVEILDLEME
# B24: GBRAP_150_3894 (protein)
# chain: DLEELLIIADSNEDILNGMIESGKYNLTILETLLKVTEKEIETAPPEIAELLKKAAEALKKAIKLLKEGAPKEEIEKELKKAAEAYKKAAELLEKKIKEE
# B25: GBRAP_166_4889 (protein)
# chain: STEEAIREIERLAEEAIANIAALTPEELLAVFIEMVEIVERAGATPELRAALAEAAARIVAAAVAAGRDWDEVESLALAAVGDDEELLDAVEATLAALRA
# B26: GBRAP_160_4194 (protein)
# chain: SEEIEKLKKEIKEIAEEAIEMIEGQSYEERKVIVKGALGQIVLLVDESESVSDEAEEKIAEIADETIAYLDSNPDLTEEEIKELIKETTEKIIKILEEED
# B27: GBRAP_125_3075 (protein)
# chain: PTPEELEDLALIARALGYSEDDVAEIVAIAAASSLRQTLVAIMLAEGAEEAADAVERLTEAEARAVLREVAAALRANPGLSKEEVVALMLEVARRALAAA
# B28: GBRAP_78_6593 (protein)
# chain: EIEEAIDELLKATNEAMTLLAKNPTEFAQDILGELIDESTEIWEAYEEYNDLEKIKEEAEKLAKTLKKALEKKDKFSPETVAAIEKALKEAEKLIKLLDK
# B29: GBRAP_160_4700 (protein)
# chain: SATAEKLKAFAQEEFDEAKELVVGESREQRAIIVEGRGGEIIMELISNPDVSDELVDEVDKIIDDLVATILANPDLTDEELKALIDEALKKIKEAIDKHL
# Molecular target: GABARAP, O95166
# Assay: median log2 fold change of GCK-ALFA target abundance (FLAG IP / Myc IP barcode read proportion) (log2 ratio); each designed protein is fused to an ALFA-tag nanobody in HEK293 cells to bring the named protein to FLAG-tagged glucokinase (GCK); Myc marks an untargeted standard; higher = target protein stabilised (more abundant)
# Settings: target protein: 3xFLAG-MCP-GCK-ALFA reporter; HEK293 landing pad (RPLP)
# Procedure, shortened: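 An ALFA-nanobody-fused binder library was recombined into HEK293 landing-pad cells and induced with 2 μg mL^−1 doxycycline. Cells were transfected with a plasmid expressing a FLAG-tagged target and a Myc-tagged standard. After 48 h, lysates underwent anti-FLAG and anti-Myc immunoprecipitation, and circular RNA barcodes were reverse transcribed, amplified and sequenced. Target abundance is the per-binder median log2 ratio of FLAG to Myc barcode read proportions. Barcodes needed ≥10^−7 proportion in both replicates, binders ≥3 barcodes per replicate, and a 10^−6 pseudocount was added; the two replicates were pooled.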
# Sequence of GABARAP, O95166 (O95166 whole entry, the tested form may be a part): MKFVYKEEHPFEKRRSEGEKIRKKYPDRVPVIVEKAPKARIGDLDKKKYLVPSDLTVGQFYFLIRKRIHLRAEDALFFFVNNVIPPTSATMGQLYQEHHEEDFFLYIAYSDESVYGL
row,Binder,median log2 fold change
1,B1,0.0499
2,B2,-0.345
3,B3,-0.0759
4,B4,0.287
5,B5,0.141
6,B6,0.127
7,B7,0.291
8,B8,0.187
9,B9,0.0613
10,B10,0.216
11,B11,-0.275
12,B12,-0.0372
13,B13,0.0607
14,B14,0.0903
15,B15,0.0208
16,B16,0.149
17,B17,0.212
18,B18,0.0584
19,B19,-0.872
20,B20,-0.482
21,B21,-0.185
22,B22,0.195
23,B23,0.323
24,B24,0.103
25,B25,0.108
26,B26,-0.0355
27,B27,0.0955
28,B28,0.216
29,B29,0.132

# — the supplement of paper PMC12632987
